Reference: PMC5663739
Results are given in words; binding and its absence hold for the method and conditions named. In cells and extracts the contact can be indirect. Some results given as binding are weak or reduced against the parent protein; the word gives no strength. Sequences can lack the tags named with a protein. One block for each molecule: values may come before it.

Amino acid sequences for entries named in this document (tags omitted).
UniProt Q9CQJ4: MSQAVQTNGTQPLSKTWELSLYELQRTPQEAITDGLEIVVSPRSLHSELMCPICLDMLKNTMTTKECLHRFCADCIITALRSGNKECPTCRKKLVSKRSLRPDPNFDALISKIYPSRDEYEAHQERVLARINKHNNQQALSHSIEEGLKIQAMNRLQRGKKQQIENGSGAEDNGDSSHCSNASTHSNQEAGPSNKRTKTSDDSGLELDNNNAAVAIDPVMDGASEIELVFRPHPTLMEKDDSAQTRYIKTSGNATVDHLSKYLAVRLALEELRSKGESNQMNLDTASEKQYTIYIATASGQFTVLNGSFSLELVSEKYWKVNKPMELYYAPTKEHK
UniProt Q8VDS3: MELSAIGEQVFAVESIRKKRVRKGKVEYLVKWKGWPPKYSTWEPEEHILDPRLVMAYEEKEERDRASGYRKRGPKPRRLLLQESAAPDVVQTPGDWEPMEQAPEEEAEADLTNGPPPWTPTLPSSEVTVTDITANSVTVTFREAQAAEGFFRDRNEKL
UniProt P59178: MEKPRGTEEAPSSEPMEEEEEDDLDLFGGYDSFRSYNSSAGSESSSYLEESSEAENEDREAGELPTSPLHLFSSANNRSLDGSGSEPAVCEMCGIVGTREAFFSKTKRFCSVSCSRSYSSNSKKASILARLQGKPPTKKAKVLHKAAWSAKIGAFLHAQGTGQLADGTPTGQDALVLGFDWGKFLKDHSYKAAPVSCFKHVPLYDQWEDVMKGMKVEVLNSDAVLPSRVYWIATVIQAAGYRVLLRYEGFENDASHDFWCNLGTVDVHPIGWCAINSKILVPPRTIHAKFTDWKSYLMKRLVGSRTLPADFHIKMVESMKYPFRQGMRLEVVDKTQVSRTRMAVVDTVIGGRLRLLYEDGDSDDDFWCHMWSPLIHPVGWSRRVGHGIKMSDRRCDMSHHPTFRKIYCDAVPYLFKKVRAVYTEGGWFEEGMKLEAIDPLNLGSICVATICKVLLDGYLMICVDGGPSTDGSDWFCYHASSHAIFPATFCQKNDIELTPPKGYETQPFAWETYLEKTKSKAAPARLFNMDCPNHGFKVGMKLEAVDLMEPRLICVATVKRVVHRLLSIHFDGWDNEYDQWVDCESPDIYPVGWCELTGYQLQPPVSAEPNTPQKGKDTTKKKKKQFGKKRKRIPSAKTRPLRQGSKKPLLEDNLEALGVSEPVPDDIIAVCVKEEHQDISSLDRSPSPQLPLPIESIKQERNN
UniProt A2AWL7: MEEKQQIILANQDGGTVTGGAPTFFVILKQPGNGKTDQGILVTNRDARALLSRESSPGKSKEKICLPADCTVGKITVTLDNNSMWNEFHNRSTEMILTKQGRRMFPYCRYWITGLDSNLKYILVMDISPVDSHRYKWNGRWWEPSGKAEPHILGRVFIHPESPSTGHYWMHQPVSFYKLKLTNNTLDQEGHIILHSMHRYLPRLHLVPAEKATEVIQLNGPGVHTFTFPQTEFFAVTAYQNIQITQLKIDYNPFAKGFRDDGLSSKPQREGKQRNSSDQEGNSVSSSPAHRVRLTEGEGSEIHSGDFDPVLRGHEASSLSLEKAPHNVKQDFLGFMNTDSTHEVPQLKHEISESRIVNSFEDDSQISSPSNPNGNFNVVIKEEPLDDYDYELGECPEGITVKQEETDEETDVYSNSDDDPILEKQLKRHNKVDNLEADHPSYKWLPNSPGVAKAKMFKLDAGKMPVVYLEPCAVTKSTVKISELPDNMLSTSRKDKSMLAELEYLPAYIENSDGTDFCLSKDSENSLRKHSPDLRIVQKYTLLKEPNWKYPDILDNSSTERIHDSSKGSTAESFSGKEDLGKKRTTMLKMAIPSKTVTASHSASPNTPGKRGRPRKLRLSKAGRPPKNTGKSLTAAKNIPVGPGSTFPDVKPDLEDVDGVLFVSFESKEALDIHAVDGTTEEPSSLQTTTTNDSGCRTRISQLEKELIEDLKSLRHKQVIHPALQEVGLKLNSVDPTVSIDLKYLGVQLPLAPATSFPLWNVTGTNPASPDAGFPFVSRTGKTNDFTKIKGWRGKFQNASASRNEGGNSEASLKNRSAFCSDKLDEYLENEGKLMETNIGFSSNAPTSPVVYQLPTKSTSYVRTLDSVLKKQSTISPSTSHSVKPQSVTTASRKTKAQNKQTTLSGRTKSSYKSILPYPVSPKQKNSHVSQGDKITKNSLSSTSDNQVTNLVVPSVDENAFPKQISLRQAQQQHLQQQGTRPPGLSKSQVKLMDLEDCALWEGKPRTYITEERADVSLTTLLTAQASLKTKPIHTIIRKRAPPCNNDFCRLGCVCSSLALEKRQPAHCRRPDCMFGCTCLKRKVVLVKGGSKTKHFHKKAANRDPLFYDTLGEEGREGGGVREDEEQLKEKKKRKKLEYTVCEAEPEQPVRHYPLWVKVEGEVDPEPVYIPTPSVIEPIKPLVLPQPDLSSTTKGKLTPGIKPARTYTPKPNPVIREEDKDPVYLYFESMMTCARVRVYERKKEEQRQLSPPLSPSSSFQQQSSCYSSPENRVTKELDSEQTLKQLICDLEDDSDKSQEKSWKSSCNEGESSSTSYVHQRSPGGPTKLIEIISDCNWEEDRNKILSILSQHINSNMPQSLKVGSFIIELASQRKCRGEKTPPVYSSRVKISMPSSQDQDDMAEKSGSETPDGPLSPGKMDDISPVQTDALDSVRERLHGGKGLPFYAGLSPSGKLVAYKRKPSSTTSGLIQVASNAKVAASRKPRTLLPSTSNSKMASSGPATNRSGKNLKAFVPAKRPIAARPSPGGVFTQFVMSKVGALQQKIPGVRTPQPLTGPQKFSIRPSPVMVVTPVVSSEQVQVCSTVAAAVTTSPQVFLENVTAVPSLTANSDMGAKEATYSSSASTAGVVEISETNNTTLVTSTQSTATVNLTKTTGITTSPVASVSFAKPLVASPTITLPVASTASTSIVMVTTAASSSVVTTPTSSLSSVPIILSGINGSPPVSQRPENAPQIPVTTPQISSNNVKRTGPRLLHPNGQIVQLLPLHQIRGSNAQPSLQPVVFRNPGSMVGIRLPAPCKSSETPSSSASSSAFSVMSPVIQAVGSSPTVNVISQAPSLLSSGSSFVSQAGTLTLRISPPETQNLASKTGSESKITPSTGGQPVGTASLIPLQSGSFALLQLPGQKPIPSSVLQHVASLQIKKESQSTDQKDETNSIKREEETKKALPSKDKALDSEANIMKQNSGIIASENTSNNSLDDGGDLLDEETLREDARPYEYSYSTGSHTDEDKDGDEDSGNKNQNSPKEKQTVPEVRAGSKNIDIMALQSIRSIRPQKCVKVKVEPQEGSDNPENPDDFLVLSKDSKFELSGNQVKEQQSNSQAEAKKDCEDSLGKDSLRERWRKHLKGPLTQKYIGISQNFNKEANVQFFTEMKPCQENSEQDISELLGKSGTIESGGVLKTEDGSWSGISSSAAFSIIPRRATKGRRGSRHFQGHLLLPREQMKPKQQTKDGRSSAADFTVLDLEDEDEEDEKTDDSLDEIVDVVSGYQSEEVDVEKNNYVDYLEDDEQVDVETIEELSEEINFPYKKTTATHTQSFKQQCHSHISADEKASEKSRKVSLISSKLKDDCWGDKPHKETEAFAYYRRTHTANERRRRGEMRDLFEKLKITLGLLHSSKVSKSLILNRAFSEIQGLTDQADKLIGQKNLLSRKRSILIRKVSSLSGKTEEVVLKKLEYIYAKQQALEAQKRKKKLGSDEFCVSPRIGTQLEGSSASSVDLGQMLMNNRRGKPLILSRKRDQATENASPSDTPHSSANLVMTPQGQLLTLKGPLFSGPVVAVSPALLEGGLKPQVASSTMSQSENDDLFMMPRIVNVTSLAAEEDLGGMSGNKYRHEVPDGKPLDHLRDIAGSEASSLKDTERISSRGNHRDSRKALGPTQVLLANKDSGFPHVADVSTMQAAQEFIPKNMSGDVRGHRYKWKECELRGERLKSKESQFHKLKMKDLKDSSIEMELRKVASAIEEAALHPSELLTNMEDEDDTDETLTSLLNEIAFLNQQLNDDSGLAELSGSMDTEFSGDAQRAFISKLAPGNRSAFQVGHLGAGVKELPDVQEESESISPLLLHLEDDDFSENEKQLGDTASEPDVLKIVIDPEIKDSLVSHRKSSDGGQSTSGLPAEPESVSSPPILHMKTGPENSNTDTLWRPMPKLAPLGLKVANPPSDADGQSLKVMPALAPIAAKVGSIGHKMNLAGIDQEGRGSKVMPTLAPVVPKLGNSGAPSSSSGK

How the values were obtained:
[1] = target: T1, CBX6-3×FLAG (mouse) (UniProt Q9DBY5); test: co-IP; FLAG M2 beads on total extracts of ESCs expressing CBX6-3×FLAG; IP300 buffer (50 mM Tris-HCl pH 7.6, 300 mM NaCl, 10% glycerol, 0.2% NP-40), 4 °C; Western blot with specific antibodies
T1 sequence: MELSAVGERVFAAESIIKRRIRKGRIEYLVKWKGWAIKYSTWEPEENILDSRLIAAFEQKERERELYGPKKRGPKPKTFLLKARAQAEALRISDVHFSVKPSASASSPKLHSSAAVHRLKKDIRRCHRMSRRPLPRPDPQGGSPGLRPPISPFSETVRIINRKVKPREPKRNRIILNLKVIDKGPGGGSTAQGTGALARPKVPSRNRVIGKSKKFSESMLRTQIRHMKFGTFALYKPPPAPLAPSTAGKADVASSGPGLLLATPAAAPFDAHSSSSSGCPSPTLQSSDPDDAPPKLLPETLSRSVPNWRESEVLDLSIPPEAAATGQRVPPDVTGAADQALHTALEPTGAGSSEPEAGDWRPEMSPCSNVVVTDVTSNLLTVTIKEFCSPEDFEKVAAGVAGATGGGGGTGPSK

[2] = target: RING1B (mouse (endogenous in ESCs)) (UniProt Q9CQJ4); test: co-IP; reverse IP with a RING1B-specific antibody from total extracts of CBX6-3×FLAG-expressing ESCs; protein A or G sepharose beads, 4 °C; Western blot

- binding [1]: binds
Molecule: RING1B (from UniProt Q9CQJ4 1-336)

- binding [1]: binds
B1: PHC1 (protein, UniProt Q64028 1-1010)
chain: METESEQNSSSTNGSSSSGASSRPQIAQMSLYERQAVQALQALQRQPNAAQYFHQFMLQQQLSNAQLHSLAAVQQATIAASRQASSPNSSTAQQQTATTQASMNLATTSAAQLISRSQSVSSPSATTLTQSVLLGNTTSPPLNQSQAQMYLRPQLGNLLQVNRTLGRNVPLASQLILMPNGAVAAVQQEVPPAQSPGVHADADQVQNLAVRNQQASAQGPQMPGSTQKAIPPGASPVSGLSQTSSQALAVAQASSGASGQSLNLSQAGGGSGNSLPGSMGPGGGGQAPGGLGQLPSSGLTGGSCPRKGTGVVQPLPAAQTVTVSQGSQTEAESAAAKKAEADGSGQQSVGMNLTRTATPAPSQTLISSATYTQIQPHSLIQQQQQIHLQQKQVVIQQQIAIHHQQQFQHRQSQLLHTATHLQLAQQQQQQQQQQQQQQQQQQQQQQGTTLTAPQPPQVPPTQQVPPSQSQQQAQTLVVQPMLQSSPLTLPPEPTSKPPIPIQSKPPVAPIKPPQLGAAKMSATQQPPPHIPVQVVGTRQPGSAQAQALGLAQLAAAVPTPRGITGAVQPGQAHLASSPPSSQAAPGALQECPPALAAGMTLAPVQGTAHVVKGGPTASSPVVAQVPAAFYMQSVHLPGKAQTLAVKRKAESEEERDDLSALASVLPTKASPAAESPKVIEEKNSLGEKAEPVASLNANPPNSDLVALAPTPSAPPPTLALVSRQMGDSKPPQAIVKPQILTHIIEGFVIQEGAEPFPVGCSQFLKETKKPLQAGLPTGLNESQPSGPLGGDSPSVELEKKANLLKCEYCGKYAPAEQFRGSKRFCSMTCAKRYNVSCSHQFRLKRKKMKEFQEASYARVRRRGPRRSSSDIARAKIQGKRHRGQEDSSRGSDNSSYDEALSPTSPGPLSVRAGHGERDLGNTITTPSTPELQGINPVFLSSNPSQWSVEEVYEFIASLQGCQEIAEEFRSQEIDGQALLLLKEEHLMSAMNIKLGPALKICAKINVLKET

- binding [1]: binds
B2: PCGF6 (protein, UniProt Q99NA9 1-353)
chain: MDEAETDATENKRASEAKRASAMPPPPPPPPPISPPALIPAPAAGEEGPASLGQAGAAGCSRSRPPALEPERSLGRLRGRFEDYDEELEEEEEMEEEEEEEEEMSHFSLRLESGRADSEDEEERLINLVELTPYILCSICKGYLIDATTITECLHTFCKSCIVRHFYYSNRCPKCNIVVHQTQPLYNIRLDRQLQDIVYKLVINLEEREKKQMHDFYKERGLEVPKPAAPQPVPSSKGKTKKVLESVFRIPPELDMSLLLEFIGANEDTGHFKPLEKKFVRVSGEATIGHVEKFLRRKMGLDPACQVDIICGDHLLERYQTLREIRRAIGDTAMQDGLLVLHYGLVVSPLKIT

- binding [1]: no binding
B4: RYBP (protein, UniProt Q8CCI5 1-228)
chain: MTMGDKKSPTRPKRQAKPAADEGFWDCSVCTFRNSAEAFKCSICDVRKGTSTRKPRINSQLVAQQVAQQYATPPPPKKEKKEKVEKPDKEKPEKDKDISPSVTKKNTNKKTKPKSDILKDPPSEANSIQSANATTKTSETNHTSRPRLKNVDRSTAQQLAVTVGNVTVIITDFKEKTRSSSTSSSTVTSSAGSEQQNQSSSGSESTDKGSSRSSTPKGDMSAVNDESF

The remaining lines, values behind:

Molecule: CBX7 (from UniProt Q8VDS3 1-158)
- binding [1]: no binding

Molecule: L3MBTL2 (from UniProt P59178 1-703)
- binding [1]: binds

Molecule: MGA (from UniProt A2AWL7 1-3003)
- binding [1]: binds

B3: CBX6-3×FLAG (protein, UniProt Q9DBY5 1-414)
chain: T1 sequence
- binding [2]: binds

B5: PCGF2/MEL18 (protein, UniProt P23798 1-342)
chain: MHRTTRIKITELNPHLMCALCGGYFIDATTIVECLHSFCKTCIVRYLETNKYCPMCDVQVHKTRPLLSIRSDKTLQDIVYKLVPGLFKDEMKRRRDFYAAYPLTEVPNGSNEDRGEVLEQEKGALGDDEIVSLSIEFYEGVRDREEKKNLTENGDGDKEKTGVRFLRCPAAMTVMHLAKFLRNKMDVPSKYKVEILYEDEPLKEYYTLMDIAYIYPWRRNGPLPLKYRVQPACKRLTLPTVPTPSEGTNTSGASECESVSDKAPSPATLPATSSSLPSPATPSHGSPSSHGPPATHPTSPTPPSTAAGTTTATNGGTSNCLQTPSSTSRGRKMTVNGAPCPP
- binding [1]: binds
